From patent US7579371B2, “Methods of using [3.2.0] heterocyclic compounds and analogs thereof” (Nereus Pharmaceuticals, Inc., priority 2004, dated 2009)

Test system: RAW264.7 cells
Conditions: mouse, 12 nM, no LeTx

`C[C@@]12OC(=O)[C@]1([C@@H](O)[C@@H]1C=CCCC1)NC(=O)[C@@H]2CCCl` [Formula II-16, Salinosporamide A] was tested, and the “viability, compound alone” value was 96%.
